This is an account of results in ChEMBL document CHEMBL4888484, “Replenishing the malaria drug discovery pipeline: Screening and hit evaluation of the MMV Hit Generation Library 1 (HGL1) against asexual blood stage Plasmodium falciparum ,using a nano luciferase reporter read-out” (2022).

The campaign covered roughly 150,000 compounds. About 540 (0.36%) showed an effect of 50% or more. This is one part of the list.

For the test, the system named is Plasmodium falciparum. Briefly: Primary screen in NF54 nanoGlo assay, in single point, at 2uM, 72h; a lower Z score goes with more inhibition. The format is functional, Erythrocyte. Conditions: timepoint 72 hour.
As to `CCn1ccnc1[C@H](C)NC(=O)c1ccc2c(C)cc(=O)[nH]c2c1`, the “% Inhibition” value was -11% and the Z score is recorded as 1.49.
In the same order, the values of `CNc1ccc(Cl)cc1C(=O)N1CCC2(CCO2)CC1` are -26% and 2.3.
For `COC(=O)c1ccc(CN[C@@H]2CCCC[C@H]2O)n1C` the same measures were 2% and -0.37.
Regarding `CC(=O)N1CCCN(C(=O)NC2CCCCCCC2)CC1`, the “% Inhibition” value was -7% and the Z score was 0.93.
In the same order, the values of `Cc1ccc2nc(-c3ccco3)nc(N3CCN(C(=O)Cc4ccc(F)cc4)CC3)c2c1` are -9% and 1.19.
With `COc1cc([C@H]2NC(=O)c3ccccc3N2C)cc2c1OCCO2`, the “% Inhibition” value is listed as -5% and the Z score came to 0.73.
For `COc1cccc(Cn2ccc3ccn(Cc4cccnc4)c3c2=O)c1`, the “% Inhibition” value worked out at 9% and the Z score was -0.82.
Turning to `O=C(c1cc(Cl)c[nH]1)N1CCCO[C@@H](CN2CCOCC2)C1`, the “% Inhibition” value was -1% and the Z score was found to be 0.12.
For `COc1ccc(S(=O)(=O)[C@H]2CS(=O)(=O)C[C@@H]2NCCN2CCOCC2)cc1C` the same measures were -2% and 0.26.
With `C[C@H](O)c1ccn(Cc2nc(C(F)(F)F)cs2)n1`, the “% Inhibition” value is -9% and the Z score amounted to 1.05.
For the compound `COc1ccnc(Cn2ccc(-c3cccc(-c4ncccc4C#N)c3)n2)c1`, the “% Inhibition” value stood at 1% and the Z score is listed as -0.24.
With `CCCc1nc(N2CCC[C@H](c3nc(C(C)C)no3)C2)no1`, the “% Inhibition” value is recorded as -16% and the Z score was found to be 2.08.
In the case of `O=C(CCc1cccc2ccccc12)NCc1cncc(-c2ccsc2)c1`, the “% Inhibition” value is given as -2% and the Z score is on record as 0.36.
In the case of `Cc1ccccc1C(=O)N(Cc1ccc(F)cc1)c1cccc(CC(=O)NCCN2CCCC2)c1`, the “% Inhibition” value was found to be 6% and the Z score was -0.6.
For `O=C(Nc1ncn(CC(=O)N2CCOCC2)n1)c1ccc(F)cc1` the same measures were 6% and -0.61.
For `C=CCCC(=O)N1CCC[C@H](C(=O)c2cccc3ccccc23)C1` the same measures were -1% and 0.2.
As for `Cc1ccc(-c2nnc([C@H](C)Nc3cccc4c3OCCO4)o2)cc1`, the “% Inhibition” value is -9% and the Z score is listed as 1.18.
For `CC(C)=CCN(CC(N)=O)[C@H](C)c1ccccc1` the same measures were -2% and 0.32.
`c1ccc(-c2cc(-c3nc(-c4ccc5c(c4)OCO5)no3)n[nH]2)cc1`: the “% Inhibition” value is -10% and the Z score is listed as 1.06.
Turning to `CCC(CC)C(=O)N1CC[C@@H](CC(=O)O)[C@@H](CC2=NCCc3cc(F)ccc32)C1`, the “% Inhibition” value was -3% and the Z score is 0.39.
Turning to `c1nc(Cn2nnnc2C2CCCCC2)cs1`, the “% Inhibition” value turned out to be 5% and the Z score is reported as -0.98.
On to `CC1CN(Cc2ccccn2)CCC1Nc1ccc(CCO)cc1` (stereo not drawn), for which the “% Inhibition” value was -2% and the Z score is listed as 0.32.
With `O=C(NCCOc1c(Cl)cc(Cl)cc1Cl)[C@H]1CCS(=O)(=O)C1`, the “% Inhibition” value was -15% and the Z score was found to be 1.49.
For `O=C(CCc1ccc(O)cc1)N1CCC[C@H]1CO`, the “% Inhibition” value is given as 0% and the Z score is -0.04.
In the same order, the values of `O=C(Nc1nncs1)c1ccc(N[C@@H]2CCC[C@H]2c2ccccc2)nc1` are 29% and -3.93.
As for `COCC(=O)N1CCC2(CC1)C(=O)N(CC(=O)N1CCCCC1)CN2c1ccccc1`, the “% Inhibition” value is reported as -6% and the Z score worked out at 0.94.
In the same order, the values of `Cc1ccc(-c2nc(-c3ccc(C(F)(F)F)cc3)sc2NC(=O)c2ccccc2)cc1` are -8% and 1.09.
Regarding `COc1ccc(CNC(=O)CN2C(c3ccccc3)=C[C@@H](c3ccc(C)cc3)n3nnnc32)cc1`, the “% Inhibition” value was -5% and the Z score is listed as 0.52.
On to `O=C(CCc1ccncc1)N[C@H]1CCCC12OCCO2`, for which the “% Inhibition” value is on record as 0% and the Z score is listed as -0.06.
For `O=C(c1ccc[nH]1)N1CCCN(C(=O)C2CC3CCC2O3)CC1` (stereo not drawn), the “% Inhibition” value is -12% and the Z score came out at 2.16.
Regarding `CO[C@@]1(C)CCCN(C(=O)NCCc2ccc3[nH]ccc3c2)C1`, the “% Inhibition” value was -11% and the Z score is listed as 1.84.
As to `C[C@H]1COCCCN1Cc1cncc(C(F)(F)F)c1`, the “% Inhibition” value is listed as -9% and the Z score was 0.9.
Turning to `Cc1cccc(NC(=O)Cn2c(=O)n(Cc3ccc4c(c3)OCO4)c(=O)c3sccc32)c1C`, the “% Inhibition” value was determined as 13% and the Z score is -2.55.
In the case of `CC(=O)Nc1ccc(C(=O)N2CC[C@H](c3cccnc3)C2)cc1Cl`, the “% Inhibition” value amounted to 0% and the Z score is reported as -0.04.
On to `Cc1ccc(CN(C)C)cc1NC(=O)[C@@H](C(=O)O)C(C)(C)C`, for which the “% Inhibition” value was 30% and the Z score was -3.43.
In the same order, the values of `COc1ccc(S(=O)(=O)Oc2ccc3c(c2)ncn3C)cc1` are -22% and 3.28.
On to `CNc1nc(N2CCC(CO)(C[C@H]3CCCCO3)CC2)nc2c1CCC2`, for which the “% Inhibition” value is recorded as -18% and the Z score was 1.89.
In the same order, the values of `Cc1nnc(CC(=O)N2CCCC23CCC3)o1` are -14% and 1.38.
Regarding `Cc1noc(C)c1CO[C@H]1COCC[C@@H]1NC(=O)c1ncoc1C`, the “% Inhibition” value is on record as -6% and the Z score is reported as 0.88.
Take `COc1ccc(CN2CCC[C@H](Cn3ccnc3C)C2)cn1`: the “% Inhibition” value was -11% and the Z score is on record as 1.66.
For `O=C(NCCCc1ccccc1)N1CC(CN2C(=O)CCC2=O)C1`, the “% Inhibition” value was -9% and the Z score was 1.7.
For `Cc1nc[nH]c1CN1CCN(c2ncccn2)CC1` the same measures were -16% and 2.23.
On to `NC(=O)[C@@H]1CCCCN1Cc1cnc2c(-c3ccccc3)cnn2c1`, for which the “% Inhibition” value is recorded as -14% and the Z score was found to be 2.03.
`CCCn1nccc1S(=O)(=O)NCc1csc(C)n1`: the “% Inhibition” value was -9% and the Z score is recorded as 1.74.
For `O=C1C2ON(c3ccc(Br)cc3)C(c3cccnc3)C2C(=O)N1c1cccc(C(F)(F)F)c1` (stereo not drawn) the same measures were -3% and 0.62.
Consider `CN(CC(=O)NCCCc1ccccc1)c1nnc(N2CCCC2=O)s1`, for which the “% Inhibition” value is -2% and the Z score worked out at 0.4.
As for `O=C(Nc1ccc(-c2nc3cc(Cl)ccc3o2)cc1)c1cccc2ccccc12`, the “% Inhibition” value is recorded as -3% and the Z score is listed as 0.61.
As for `CN(C)[C@@H](CN=C(N)N1CCOCC1)c1cccc(C(F)(F)F)c1`, the “% Inhibition” value is reported as -14% and the Z score is on record as 1.43.
Regarding `CCc1cccc(NC(=O)[C@@H]2CCCCN2S(=O)(=O)c2cccc3c2N=S=N3)c1`, the “% Inhibition” value is -6% and the Z score worked out at 0.62.
As to `CN(C[C@@H](O)Cc1ccccc1)c1cccc(C(=O)O)n1`, the “% Inhibition” value worked out at 2% and the Z score is -0.33.
Consider `Cc1[nH]c(-c2ccccc2)nc1C(=O)N1CCC[C@H](c2nc(CC(C)C)no2)C1`, for which the “% Inhibition” value is -5% and the Z score turned out to be 1.15.
With `COc1cccc(NC(=O)c2c(NC(=O)c3ccc(C)cc3)sc(C)c2C)c1`, the “% Inhibition” value is recorded as -15% and the Z score was found to be 1.94.
As to `CC(C)(C)n1ncc2c(=O)[nH]c(NC3CCN(Cc4ccccc4)CC3)nc21`, the “% Inhibition” value is reported as 8% and the Z score is -1.02.
For `Cc1ccsc1CN1CC[C@@]2(C1)C(=O)N(CC(N)=O)c1ccccc12` the same measures were -13% and 2.44.
For `Cc1ccc([C@H](C)c2nc(C3CC3)no2)o1` the same measures were -3% and 0.3.
For `Cc1cc(C(=O)Nc2ccn(CCN(C)C)n2)nn1-c1ccc(F)cc1F`, the “% Inhibition” value is given as -13% and the Z score worked out at 1.2.
As for `CN(CC#CCNC(=O)c1ccc(Cl)cc1Cl)Cc1ccccc1`, the “% Inhibition” value is on record as 0% and the Z score came out at 0.05.
Turning to `CCOc1nnc(CN2CCN(CC)c3ccccc32)s1`, the “% Inhibition” value is given as -14% and the Z score is 2.12.
In the case of `Cc1cc(C#N)nc(N2CCc3cc(C)c(C)cc32)n1`, the “% Inhibition” value is -8% and the Z score turned out to be 1.37.
Turning to `CC(C)c1cccc(N(C)C(=O)N(C)CCO)c1`, the “% Inhibition” value was -5% and the Z score was found to be 0.97.
As for `Cc1ccc(C)c(N2CCN(C(=O)c3cc(C)nc4c3c(C)nn4-c3ccccc3Cl)CC2)c1`, the “% Inhibition” value is reported as -1% and the Z score turned out to be 0.19.
On to `O=C(NCc1cccc(Br)c1)[C@H]1CCCN(c2nc3ccc(Br)cc3[nH]2)C1`, for which the “% Inhibition” value was -3% and the Z score is given as 0.48.
In the case of `Cc1nnc(N2CCN(CC(F)(F)CO)CC2)nc1C`, the “% Inhibition” value is on record as -7% and the Z score was determined as 1.36.
In the same order, the values of `Cc1c[nH]c(CN(C)C(=O)[C@H](C)n2nc(C)cc2C)n1` are 1% and -0.13.
With `O=C(c1ccccc1)c1ccc2n1CC[C@H]2C(=O)NCc1cccc(Cl)c1`, the “% Inhibition” value was 29% and the Z score is on record as -3.28.
For `O=c1[nH]c2c(-c3ccccn3)nsc2c(=O)n1Cc1cc(F)cc(F)c1`, the “% Inhibition” value was -14% and the Z score is listed as 1.8.
For the compound `O=C(Nc1cnc(C(F)(F)F)nc1)N(Cc1ccncc1)C1CC1`, the “% Inhibition” value is recorded as 0% and the Z score is on record as -0.01.
As to `Cc1cc(C)n2nc(C(=O)N(Cc3ccccc3)c3nc4c(s3)CCCC4)nc2n1`, the “% Inhibition” value was -4% and the Z score stood at 0.46.
On to `CCN(CC)C(=O)Cn1c(=O)n(CCc2cccs2)c(=O)c2ccccc21`, for which the “% Inhibition” value is recorded as -12% and the Z score was 1.75.
As for `Cc1ccc(F)c(CN2[C@@H]3CC[C@H]2CNC(=O)C3)c1F`, the “% Inhibition” value is -21% and the Z score came to 2.01.
In the case of `COCC1(CNS(=O)(=O)CC(C)C)CCC1`, the “% Inhibition” value is -3% and the Z score came to 0.35.
With `Cc1cc(Br)ccc1NC(=O)CCOC[C@H]1CCCO1`, the “% Inhibition” value came out at 0% and the Z score is 0.04.
Take `COc1ccc([C@H](C)NC(=O)C(C)C)cc1`: the “% Inhibition” value is given as -2% and the Z score is 0.28.
For `O=C(c1cccnn1)N1CCCC[C@@H]1CCc1ccccc1` the same measures were -4% and 0.62.
As for `Cc1ccc2c(C(=O)N3CCC[C@H](C#N)C3)cc(-c3cncnc3)nc2c1C`, the “% Inhibition” value is on record as -18% and the Z score was determined as 2.63.
On to `C[C@H](NC(=O)C(=O)Nc1ccn(C)n1)c1ccc(F)cc1F`, for which the “% Inhibition” value was -10% and the Z score is given as 1.57.
For the compound `N#Cc1c(N)nc2c(c1-c1ccccc1OCc1ccccc1)CNCC2`, the “% Inhibition” value was 9% and the Z score is on record as -1.8.
Regarding `Nc1ccc(CCS(N)(=O)=O)cc1`, the “% Inhibition” value was -10% and the Z score is 1.36.
As to `COCc1ccc(CN2CCC(n3nccc3NC(=O)[C@H]3CCOC3)CC2)o1`, the “% Inhibition” value is -6% and the Z score is on record as 0.71.
For `Cn1cnnc1[C@@H]1CCCN1Cc1c(Cl)cnn1C` the same measures were -3% and 0.42.
Consider `COC(=O)[C@@H]1N[C@H](c2ccc(F)c(Cl)c2F)[C@@H]2C(=O)N(C)C(=O)[C@@H]21`, for which the “% Inhibition” value is recorded as -5% and the Z score stood at 0.67.
In the case of `CN(C)c1ccc(C(=O)N2CC[C@H]3NC(=O)N(Cc4ccccc4)C(=O)[C@H]32)cc1`, the “% Inhibition” value was 40% and the Z score is given as -4.51.
`c1ccc(Cc2cn[nH]c2[C@H]2CCCN(c3ncnc4[nH]ccc34)C2)cc1`: the “% Inhibition” value was 11% and the Z score is given as -2.16.
For `Cc1cc(NC[C@H](O)c2cnn(C)c2)ncc1Br`, the “% Inhibition” value worked out at 38% and the Z score was -0.98.

For orientation: % Inhibition means the drop in the measured response relative to a control, in per cent.
